Results: the supplement of paper PMC6135742
Where “and” joins values, the source holds several entries; their conditions need not be identical. Equal values may be shown once. Where a name gives a salt, the structure may show the parent alone. ± gives the standard deviation of the averaged measurements. Whole data set: some 2,600 compounds, median “total cell number (DAPI+ nuclei) relative to DMSO vehicle control” near -1.4, cut for the lowest 2% near -23. The list shows a part of the results.

Tested on: jimpy (Plp1 jimpy) mouse iPSC-derived oligodendrocyte progenitor cells
Assay: total cell number (DAPI+ nuclei) relative to DMSO vehicle control (SDs above negative control mean); higher = more surviving cells
Conditions: 10 µM; 3 days

SMILES | total cell number
Cn1c(=O)n(-c2ccc(C(C)(C)C#N)cc2)c2c3cc(-c4cnc5ccccc5c4)ccc3ncc21 [BEZ235 (NVP-BEZ235, Dactolisib)] | -22.1
O=C(O)C(Cc1c[nH]c2ccccc12)N1C(=O)c2ccccc2C1=O (centres undefined) | -0.852
CCOc1cc(CC(=O)N[C@@H](CC(C)C)c2ccccc2N2CCCCC2)ccc1C(=O)O [Repaglinide] | 1.39
NC(CCCP(=O)(O)O)C(=O)O (stereo not drawn) [D(-)-2-Amino-5-phosphonopentanoic acid] | -0.967
C#C[C@]1(O)CC[C@H]2[C@@H]3CCc4cc(O)ccc4[C@H]3CC[C@@]21C [Ethinyl Estradiol] | -1.62
O=S(=O)(c1ccccc1)N(CC(F)(F)F)c1ccc(C(O)(C(F)(F)F)C(F)(F)F)cc1 | 2.96
O=C(O)c1ccc(N2C(=O)/C(=C\c3ccc(-c4ccc([N+](=O)[O-])cc4)o3)C=C2c2ccccc2)cc1 | 0.469
COC(=O)N[C@H](C(=O)N1CCC[C@H]1c1ncc(-c2ccc(-c3ccc(-c4cnc([C@@H]5CCCN5C(=O)[C@@H](NC(=O)OC)C(C)C)[nH]4)cc3)cc2)[nH]1)C(C)C | -5.73
CCCCN(Cc1ccc(C(=O)NO)cc1)C(=O)Nc1ccccc1 [Nexturastat A] | -11.5
Nc1nc(N)c2nc(CNc3ccc(C(=O)N[C@@H](CCC(=O)O)C(=O)O)cc3)cnc2n1 [Aminopterin] | -2.62
CC(C(=O)O)c1cccc(C(=O)c2ccccc2)c1 (centres undefined) [Ketoprofen] | -0.826 ± 2
CC[C@H](NC(=O)c1c(C)c(-c2ccccc2)nc2ccccc12)c1ccccc1 | -1.73
NCC(O)(CS(=O)(=O)O)c1ccc(Cl)cc1 (centres undefined) [2-Hydroxysaclofen] | -0.987
CCOC(=O)c1ncn2c1CN(C)C(=O)c1cc(F)ccc1-2 [Flumazenil] | -0.805 ± 0.66
O=NN(CCCl)C(=O)NCCCl [Carmustine] | -1.95
CC1=C(C(=O)Nc2cc3cn[nH]c3cc2F)C(c2ccc(C(F)(F)F)cc2)CC(=O)N1 (centres undefined) | 3.97
CNC(=O)c1ccccc1Nc1nc(Nc2ccc(N3CCOCC3)cc2OC)ncc1Cl | -12.2
Cc1cc(C)c2c(c1)[C@@H](N(Cc1cc(C(F)(F)F)cc(C(F)(F)F)c1)c1nnn(C)n1)CCCN2C[C@H]1CC[C@H](C(=O)O)CC1 | 0.763
CCOC(=O)[C@H](CCc1ccccc1)N[C@H]1CCCN2CCC[C@@H](C(=O)O)N2C1=O [Cilazapril Monohydrate] | 0.563
COc1cc(C(C)=O)ccc1OCCCN1CCC(c2noc3cc(F)ccc23)CC1 [Iloperidone] | -2.6
CCCC1O[C@@H]2C[C@H]3[C@@H]4CCC5=CC(=O)C=C[C@]5(C)[C@H]4[C@@H](O)C[C@]3(C)[C@]2(C(=O)CO)O1 (some centres undefined) [Budesonide] | 10.6 ± 9.4
CCCCCCCCCCCCCCCCCCOCC(COP(=O)([O-])OCC[N+](C)(C)C)OC (centres undefined) | -1.65
CN1[C@@H]2CC[C@H]1CC(OC(=O)c1c[nH]c3ccccc13)C2 (some centres undefined) [3-Tropanyl-indole-3-carboxylate hydrochloride] | -2.23
c1cc(-c2cnn3cc(-c4ccc(N5CCNCC5)cc4)cnc23)c2cccnc2c1 | -16.3
COC(=O)c1c(C)[nH]c(C)c1C(=O)c1ccccc1Cc1ccccc1 | -1.51

SMILES | total cell number
CC1(C)S[C@@H]2[C@H](NC(=O)[C@H](C(=O)O)c3ccsc3)C(=O)N2[C@H]1C(=O)O [Ticarcillin sodium] | -1.02
O=C(c1ccc2c(c1)OCCO2)N1CCCCC1 | -1.37
Cc1cc(NS(=O)(=O)c2ccc(N)cc2)no1 [Sulfamethoxazole] | -2.51
O=C1CN(/N=C/c2ccc(-c3ccc([N+](=O)[O-])cc3)o2)C(=O)N1 [Dantrolene sodium] | -0.604
COc1cc(N2CCC(N)CC2)ccc1Nc1ncc(Cl)c(-c2c[nH]c3ccccc23)n1 | -16.3
CC(C)[C@H]1c2ccc(F)cc2CC[C@@]1(CCN(C)CCCc1nc2ccccc2[nH]1)OC(=O)C1CC1 | -11.4
COc1cc(O)c2c(c1)C(=O)c1cc(C)cc(O)c1C2=O [Rheochrysidin] | -1.42
CCOC(=O)n1ccn(C)c1=S [Carbimazole] | -1.51
O=c1cc2c(=O)oc3cc(O)c(O)oc3c2c(O)c1O [Galloflavin potassium] | -1.51
CC1(C)S[C@@H]2[C@H](NC(=O)C(C(=O)O)c3ccccc3)C(=O)N2[C@H]1C(=O)O (some centres undefined) [Carbenicillin disodium] | 0.323
NC(=O)N1C(=O)/C(=C(\O)c2cccs2)c2cc(Cl)ccc21 [Tenidap] | -1.49
CC(C)(C)C(=O)C(Oc1ccc(Cl)cc1)n1ccnc1 (centres undefined) [Climbazole] | 12.8
CC(C)N(CCCNC(=O)Nc1ccc(C(C)(C)C)cc1)C[C@H]1O[C@@H](n2cc(Br)c3c(N)ncnc32)[C@H](O)[C@@H]1O | -7.77
COc1ccc(-c2csc(NC(=O)[C@H]3CCCCN3S(=O)(=O)c3ccc(C)cc3)n2)cc1 | 3.68
CC1=C(CC(=O)O)c2cc(F)ccc2/C1=C\c1ccc(S(C)(=O)=O)cc1 [Sulindac sulfone] | 2.76
NC(N)=NC(=O)c1nc(Cl)c(N2CCCCCC2)nc1N [5-(N,N-hexamethylene)amiloride] | -2.84
O=c1sn(-c2cccc3ccccc23)c(=O)n1Cc1ccccc1 [Tideglusib] | -3.94
Nc1c2c(nc3ccccc13)CCCC2 [9-Amino-1,2,3,4-tetrahydroacridine hydrochloride] | -2.41
O=c1cc(-c2ccccc2)oc2cc(O)cc(O)c12 [Chrysin] | 0.13
O=C(CCCCCN1C(=O)c2cccc3cccc(c23)C1=O)NO [Scriptaid] | -6.21
C=C[C@@]1(C)CC(=O)[C@]2(O)[C@@]3(C)[C@@H](O)CCC(C)(C)[C@@H]3[C@H](O)[C@H](OC(C)=O)[C@@]2(C)O1 [Forskolin] | 1.14 ± 0.27
CCN(CC)C(=S)SSC(=S)N(CC)CC [Disulfiram] | -4.26
Cc1cc(OCCCS(C)(=O)=O)cc(C)c1-c1cccc(COc2ccc3c(c2)OC[C@H]3CC(=O)O)c1 | -2.44
COc1cc2/c(=N/c3ccc(Br)cc3F)nc[nH]c2cc1OCC1CCN(C)CC1 [Vandetanib (ZD6474)] | -26.7
CC1(C)O[C@@H]2C[C@H]3[C@@H]4CCC5=CC(=O)C=C[C@]5(C)[C@H]4[C@@H](O)C[C@]3(C)[C@]2(C(=O)CO)O1 [Desonide] | 8.21

SMILES | total cell number
O=C(O)c1ccc2c(c1)nc(Nc1cccc(Cl)c1)c1ccncc12 [CX-4945 (Silmitasertib)] | -12.6
c1ccc(-c2ccccn2)nc1 [2,2'-Bipyridyl] | -2.01
COc1ccccc1N1CCN(CCN(C(=O)c2ccc(F)cc2)c2ccccn2)CC1 [p-MPPF dihydrochloride] | 1.13
NCCCCCNCC12CC3CC(CC(C3)C1)C2 [IEM 1754 dihydrobroMide] | -2.64
O=C(CCCCCCC(=O)Nc1ccccc1)NO [Vorinostat (SAHA, MK0683)] | -13.8
CCc1ccc2c(-c3cccc(Cl)c3)nc(=O)n(CC)c2n1 | 0.722
CC[C@H]1OC(=O)C[C@@H](O)[C@H](C)[C@@H](O[C@@H]2O[C@H](C)[C@@H](O[C@H]3C[C@@](C)(O)[C@@H](O)[C@H](C)O3)[C@H](N(C)C)[C@H]2O)[C@@H](CC=O)C[C@@H](C)C(=O)/C=C/C(C)=C/[C@@H]1CO[C@@H]1O[C@H](C)[C@@H](O)[C@@H](OC)[C@H]1OC [Tylosin tartrate] | -2.25
O=C(/C=C/c1ccc(O)c(O)c1)c1ccc(O)cc1O [Butein] | -12.4
COC(=O)C1=C(C)NC(C)=C([N+](=O)[O-])C1c1ccccc1C(F)(F)F (racemic) | -1.95
O=C1NCCc2[nH]c(-c3ccncc3)cc21 | -11.1 and -11.3
Cc1ccc(NC(=O)c2cccc(N(C)C)c2)cc1NC(=O)c1ccc(O)cc1 | 4.8
COc1ccc(S(=O)(=O)Nc2cccnc2Nc2ccc(O)cc2)cc1 | -7.3
C[C@]12C[C@H](O)[C@H]3[C@@H](CCC4=CC(=O)CC[C@@]43C)[C@@H]1CC[C@@H]2C(=O)CO [Corticosterone] | 1.97
CCNC(=O)CCC/C=C\C[C@@H]1[C@@H](/C=C/[C@@H](O)CCc2ccccc2)[C@H](O)C[C@@H]1O [Bimatoprost] | -0.772
COC(=O)C1=C(C)NC(C)=C(C(=O)OC2CCCN(Cc3ccccc3)C2)C1c1cccc([N+](=O)[O-])c1 (centres undefined) [Benidipine hydrochloride] | -1.13
COC(=O)C1=C(C)NC(C)=C(C(=O)OC2CCCN(Cc3ccccc3)C2)C1c1cccc([N+](=O)[O-])c1 (centres undefined) [Benidipine HCl] | -1.12
CN1CCN(c2cccc(Nc3nc4c(-c5ccc(S(C)(=O)=O)cc5)cccn4n3)c2)CC1 | -11.1
Oc1ccc(O)cc1 [Hydroquinone] | -6.93
COc1cc2nc(N3CCN(C(=O)C4CCCO4)CC3)nc(N)c2cc1OC (centres undefined) [Terazosin HCl] | -1.58
C[C@H]1C[C@H]2[C@@H]3CCC4=CC(=O)C=C[C@]4(C)[C@@]3(Cl)[C@@H](O)C[C@]2(C)[C@@]1(O)C(=O)CO [Beclomethasone] | 2.7
Cc1nc(N=Nc2ccc(C(=O)O)cc2)c(COP(=O)(O)O)c(C=O)c1O | -1.5
CN[C@@H](C)C(=O)N[C@H](C(=O)N1CCC[C@H]1C(=O)Nc1snnc1-c1ccccc1)C1CCCCC1 | -4.08
CC(C)(O)CC[C@@H](O)[C@](C)(O)[C@H]1CC[C@@]2(O)C3=CC(=O)[C@@H]4C[C@@H](O)[C@@H](O)C[C@]4(C)[C@H]3CC[C@]12C [20-Hydroxyecdysone] | -0.544
CNC(=O)c1nn(C)c2c1C(C)(C)Cc1cnc(Nc3ccc(N4CCN(C)CC4)cc3)nc1-2 | -10.9
